Laboratory results taken from the CheMixHub viscosity set.
This continues a long series; more values of the same kind are listed elsewhere.

Assay: xn = mol fraction of the nth substance listed
Settings: 101 kPa

CC(C)(C)O + O
Settings	viscosity [mPa·s]
308 K, x1 = 0.97	2.592
308 K, x1 = 0.98	2.597
308 K, x2 = 0.01	2.601
308.15 K, x1 = 0.098	2.148
308.15 K, x1 = 0.1	2.132
308.15 K, x1 = 0.2001	2.903
308.15 K, x1 = 0.217	2.964
308.15 K, x1 = 0.3	3.186
308.15 K, x1 = 0.301	3.21
308.15 K, x1 = 0.3997	3.221
308.15 K, x1 = 0.445	3.185
308.15 K, x1 = 0.5	3.112
308.15 K, x1 = 0.5001	3.136
308.15 K, x1 = 0.592	2.955
308.15 K, x1 = 0.5989	3.014
308.15 K, x1 = 0.694	2.841
308.15 K, x1 = 0.6995	2.881
308.15 K, x1 = 0.79	2.705
308.15 K, x1 = 0.7978	2.763
308.15 K, x1 = 0.8976	2.682
308.15 K, x1 = 0.905	2.633
313.15 K, x1 = 0.098	1.835
313.15 K, x1 = 0.1	1.79
313.15 K, x1 = 0.2001	2.392
313.15 K, x1 = 0.217	2.478
313.15 K, x1 = 0.3	2.587
313.15 K, x1 = 0.301	2.566
313.15 K, x1 = 0.3997	2.633
313.15 K, x1 = 0.445	2.626
313.15 K, x1 = 0.5	2.568
313.15 K, x1 = 0.5001	2.562
313.15 K, x1 = 0.592	2.431
313.15 K, x1 = 0.5989	2.459
313.15 K, x1 = 0.6	2.409
313.15 K, x1 = 0.694	2.327
313.15 K, x1 = 0.6995	2.346
313.15 K, x1 = 0.7	2.29
313.15 K, x1 = 0.79	2.215
313.15 K, x1 = 0.7978	2.247
313.15 K, x1 = 0.8	2.188
313.15 K, x1 = 0.8976	2.168
313.15 K, x1 = 0.9	2.12
313.15 K, x1 = 0.905	2.141
313.15 K, x1 = 0.95	2.087
318 K, x1 = 0.001	0.606
318 K, x1 = 0.005	0.644
318 K, x1 = 0.01	0.711
318 K, x1 = 0.02	0.804
318 K, x1 = 0.03	0.916
318 K, x1 = 0.04	1.038
318 K, x1 = 0.05	1.153
318 K, x1 = 0.06	1.234
318 K, x1 = 0.08	1.43
318 K, x1 = 0.1	1.602
318 K, x1 = 0.15	1.935
318 K, x1 = 0.2	2.091
318 K, x1 = 0.25	2.19
318 K, x1 = 0.3	2.235
318 K, x1 = 0.35	2.233
318 K, x1 = 0.4	2.224
318 K, x1 = 0.5	2.139
318 K, x1 = 0.6	2.032
318 K, x1 = 0.7	1.926
318 K, x1 = 0.8	1.832
318 K, x1 = 0.85	1.803
318 K, x1 = 0.88	1.771
318 K, x1 = 0.9	1.758
318 K, x1 = 0.92	1.747
318 K, x1 = 0.95	1.728
318 K, x1 = 0.97	1.719
318 K, x1 = 0.98	1.71
318 K, x2 = 0.01	1.706
318.15 K, x1 = 0.098	1.57
318.15 K, x1 = 0.1	1.528
318.15 K, x1 = 0.2001	2
318.15 K, x1 = 0.217	2.1
318.15 K, x1 = 0.3	2.185
318.15 K, x1 = 0.301	2.259
318.15 K, x1 = 0.3997	2.185
318.15 K, x1 = 0.445	2.204
318.15 K, x1 = 0.5	2.156
318.15 K, x1 = 0.5001	2.121
318.15 K, x1 = 0.592	2.034
318.15 K, x1 = 0.5989	2.03
318.15 K, x1 = 0.694	1.929
318.15 K, x1 = 0.6995	1.937
318.15 K, x1 = 0.79	1.834
318.15 K, x1 = 0.7978	1.848
318.15 K, x1 = 0.8976	1.777
318.15 K, x1 = 0.905	1.777
323.15 K, x1 = 0.098	1.364
323.15 K, x1 = 0.217	1.796
323.15 K, x1 = 0.301	1.927
323.15 K, x1 = 0.445	1.856
323.15 K, x1 = 0.5	1.813
323.15 K, x1 = 0.592	1.713
323.15 K, x1 = 0.694	1.623
323.15 K, x1 = 0.79	1.54
323.15 K, x1 = 0.905	1.482
